# From PubChem BioAssay AID504333 (National Center for Advancing Translational Sciences (NCATS), 2011)
# Screen size: about 360,000 compounds; about 16,000 (4.4%) were called active. Inconclusive means that the source gave no clear call. Such entries were picked first, then a sample of the others. Calls come from the whole dose curve; as a rule, active = well fitted inhibition curve with a large enough effect; inconclusive = small, poorly fitted or top-dose-only effect; inactive = no such curve, though single readings can be large or run the other way. Potencies beside an inconclusive call are fits to weak or partial responses and may not hold up.
# Target: Bromodomain adjacent to zinc finger domain protein 2B (Homo sapiens) (UniProt Q9UIF8)
# Assay: qHTS Assay for Inhibitors of BAZ2B; note: nearly all actives have a fitted effect of over 60% in size
# Details: AlphaScreen BAZ2B-H3K14Ac peptide displacement; series mostly up to 114 µM
# In short: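 Protein-peptide AlphaScreen: BAZ2B 50 nM, b-H3K14Ac 50 nM, 1x PBS pH 7.4 + 0.01% Tween-20. Preincubation 30 min RT; cpd 30 min RT (top 110 uM); beads 20 min RT, light-protected.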
# Potency is the fitted concentration of half-maximal effect; tags give direction and shape of the fitted curve.
# UniProt Q9UIF8, sequence (Q9UIF8 whole entry, looked up, the tested form may be a part): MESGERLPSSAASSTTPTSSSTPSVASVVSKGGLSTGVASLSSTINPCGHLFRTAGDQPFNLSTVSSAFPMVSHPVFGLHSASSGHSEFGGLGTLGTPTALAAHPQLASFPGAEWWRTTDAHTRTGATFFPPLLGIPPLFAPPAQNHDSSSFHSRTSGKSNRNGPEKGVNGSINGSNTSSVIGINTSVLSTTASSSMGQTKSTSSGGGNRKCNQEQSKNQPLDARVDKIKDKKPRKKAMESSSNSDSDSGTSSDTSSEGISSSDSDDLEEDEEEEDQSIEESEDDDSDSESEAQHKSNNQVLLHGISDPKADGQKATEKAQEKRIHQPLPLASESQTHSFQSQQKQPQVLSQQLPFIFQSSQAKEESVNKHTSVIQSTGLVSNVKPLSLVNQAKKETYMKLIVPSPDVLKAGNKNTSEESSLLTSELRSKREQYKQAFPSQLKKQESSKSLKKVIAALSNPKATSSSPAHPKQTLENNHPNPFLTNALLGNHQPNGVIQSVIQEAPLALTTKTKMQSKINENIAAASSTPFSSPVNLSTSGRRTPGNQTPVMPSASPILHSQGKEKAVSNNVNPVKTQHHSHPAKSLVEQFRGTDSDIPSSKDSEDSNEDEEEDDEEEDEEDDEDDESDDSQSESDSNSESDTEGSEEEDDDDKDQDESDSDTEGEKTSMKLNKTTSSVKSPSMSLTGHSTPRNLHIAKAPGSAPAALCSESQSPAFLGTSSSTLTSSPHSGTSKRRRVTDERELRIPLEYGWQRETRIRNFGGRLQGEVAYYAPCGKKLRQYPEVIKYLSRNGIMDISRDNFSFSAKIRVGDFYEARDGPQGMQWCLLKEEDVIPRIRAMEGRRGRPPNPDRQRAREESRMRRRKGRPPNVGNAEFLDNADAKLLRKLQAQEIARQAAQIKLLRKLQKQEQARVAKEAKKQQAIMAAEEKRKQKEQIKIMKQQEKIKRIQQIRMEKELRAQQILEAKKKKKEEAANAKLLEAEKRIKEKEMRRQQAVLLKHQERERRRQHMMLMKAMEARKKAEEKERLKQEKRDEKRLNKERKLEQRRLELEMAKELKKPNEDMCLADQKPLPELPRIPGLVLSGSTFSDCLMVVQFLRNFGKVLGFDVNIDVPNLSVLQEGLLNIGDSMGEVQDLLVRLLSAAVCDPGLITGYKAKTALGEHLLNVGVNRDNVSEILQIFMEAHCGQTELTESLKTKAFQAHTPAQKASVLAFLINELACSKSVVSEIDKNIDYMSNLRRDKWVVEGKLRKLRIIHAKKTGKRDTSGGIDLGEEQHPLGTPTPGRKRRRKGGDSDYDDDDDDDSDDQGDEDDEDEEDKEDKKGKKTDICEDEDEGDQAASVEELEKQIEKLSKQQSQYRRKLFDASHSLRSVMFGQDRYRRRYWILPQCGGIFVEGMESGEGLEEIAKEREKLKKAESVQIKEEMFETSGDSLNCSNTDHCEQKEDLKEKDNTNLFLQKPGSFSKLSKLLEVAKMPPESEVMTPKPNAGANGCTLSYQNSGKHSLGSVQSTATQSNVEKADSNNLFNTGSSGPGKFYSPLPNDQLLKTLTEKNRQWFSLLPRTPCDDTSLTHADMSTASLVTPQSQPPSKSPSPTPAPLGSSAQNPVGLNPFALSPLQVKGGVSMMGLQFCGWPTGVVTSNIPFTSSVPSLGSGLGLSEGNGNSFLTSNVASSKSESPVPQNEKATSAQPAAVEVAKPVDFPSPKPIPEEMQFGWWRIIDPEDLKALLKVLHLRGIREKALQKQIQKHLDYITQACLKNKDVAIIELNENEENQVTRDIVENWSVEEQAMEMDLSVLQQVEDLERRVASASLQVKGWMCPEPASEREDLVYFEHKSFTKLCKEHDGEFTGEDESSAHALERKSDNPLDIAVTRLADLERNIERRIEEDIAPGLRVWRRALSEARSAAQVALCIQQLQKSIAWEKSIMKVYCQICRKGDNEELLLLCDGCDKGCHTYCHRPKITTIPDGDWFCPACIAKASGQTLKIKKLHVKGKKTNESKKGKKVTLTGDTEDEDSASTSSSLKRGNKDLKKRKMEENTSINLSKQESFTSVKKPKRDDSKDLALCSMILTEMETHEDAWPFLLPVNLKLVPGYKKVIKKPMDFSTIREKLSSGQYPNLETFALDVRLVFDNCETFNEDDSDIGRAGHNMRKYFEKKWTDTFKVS
row,Compound,Potency
1,CCc1ccc(NC(=O)CN(CC(=O)Nc2ccc(CC)cc2)CC(C)O)cc1 (stereo not given),inactive
2,C=C(C)COc1ccc(-c2n[nH]c(C)c2-c2ccc(OC)c(OC)c2)c(O)c1,"inconclusive: 14.1 µM [inhibitor, full curve, poor fit]"
3,COC(=O)[C@@]1(Cc2ccc(OC)cc2)[C@H]2c3cc(C(=O)N(C)C)n(CCSCCO)c3C[C@H]2CN1C(=O)c1ccccc1,"inconclusive: 89.1 µM [inhibitor, partial curve]"
4,O=C1CCN(Cc2ccccc2)S(=O)(=O)c2ccc(C(F)(F)F)cc21,inactive
5,Cc1cccc(N2CCN(C(=O)C3CCN(c4nnc(-n5cccc5)s4)CC3)CC2C)c1 (stereo not given),"inconclusive: 44.7 µM [inhibitor, partial curve]"
6,CCN1CCC(N(Cc2ccc3c(c2)OCO3)C(=O)Nc2ccc(Br)c(C)c2)CC1,"inconclusive: 70.8 µM [inhibitor, single point]"
7,Cc1cc(C=C2C(=O)CCCC2=O)c(C)n1-c1ccccc1,active: 50.1 µM
8,COc1cccc(CN(C)CC(=O)Nc2sc3c(c2C#N)CCC3)c1OC,active: 79.4 µM
9,CC1(C)COCN1S(=O)(=O)c1ccc(C(=O)Nc2nnc(-c3ccc(Cl)s3)o2)cc1,"inconclusive: 89.1 µM [inhibitor, single point]"
10,CC1=NC(=O)C(N=Nc2ccccc2C(=O)O)N1c1ccccc1 (stereo not given),active: 28.2 µM
11,CCOC(=O)C1CCCN(C(=O)CCCn2nnnc2CN2CCOCC2)C1 (stereo not given),inactive
12,Cn1ccnc1SCC(=O)Nc1cc(Cl)ccc1Cl,"inconclusive: 50.1 µM [inhibitor, partial curve]"
13,N=c1c(-c2nc3ccccc3[nH]2)cc(C(=O)c2cccs2)nn1-c1ccccc1,"inconclusive: 50.1 µM [inhibitor, partial curve]"
14,COc1ccc(CNC(=O)C2CCN(S(=O)(=O)c3cccc4nonc34)CC2)cc1OC,inactive
15,CCOC(=O)[C@H]1[C@H]2COc3ccc(C)cc3[C@@H]2N2C(=O)CN(CC3CCCO3)C(=O)[C@@]12C (stereo not given in full),inactive
16,O=S(=O)(N/N=C\c1cccn1-c1ccccc1)c1ccc2ccccc2c1,active: 35.5 µM
17,COc1cccc(NC(=S)N/N=C2/CCCCc3ccccc32)c1,active: 39.8 µM
18,CC1=C(C#N)C(=O)N(C2CCS(=O)(=O)C2)C(=O)/C1=C\c1ccco1 (stereo not given),active: 7.08 µM
19,COc1cccc(NC(=O)CCNC(=O)Cn2ccc3ccccc3c2=O)c1,inactive
20,O=C(Nc1cccc(S(=O)(=O)N2CCOCC2)c1)c1c2c(nc3ccccc13)CCC2,"inconclusive: 50.1 µM [inhibitor, partial curve]"
21,O=C(OCCOc1ccccc1F)c1cccc(S(=O)(=O)N2CCOCC2)c1,inactive
22,COc1cc(OC)cc(-c2nnc(Sc3ccc(C=O)cc3[N+](=O)[O-])o2)c1,"inconclusive: 56.2 µM [inhibitor, single point]"
23,N#Cc1nc(-c2ccccc2)oc1NCc1ccco1,active: 50.1 µM
24,CCCC(=O)N1CCN(c2ccc(NC(=S)NC(=O)c3cccc(C)c3)cc2)CC1,"inconclusive: 22.4 µM [inhibitor, full curve]"
25,COc1ccc(/C=C/C(=O)Nc2ccc3c(c2)OCCO3)cc1OC,"inconclusive: 89.1 µM [inhibitor, single point]"

row,Compound,Potency
1,O=C1CCc2cc(S(=O)(=O)NC(Cc3ccccc3)C(=O)N3CCN(c4ccccn4)CC3)ccc2N1 (stereo not given),"inconclusive: 89.1 µM [inhibitor, single point]"
2,S=C1NC(c2cccs2)=CC(c2ccc(Br)cc2)N1 (stereo not given),"inconclusive: 35.5 µM [inhibitor, full curve]"
3,COc1ccc(S(=O)(=O)Oc2cccc(/C=N/N=C3/NC(=O)C(CC(=O)O)S3)c2)cc1 (stereo not given),"inconclusive: 89.1 µM [inhibitor, single point]"
4,COc1ccc(C(=O)c2ccc(N3CCOCC3)cc2)c(OC)c1,inactive
5,CCn1nnnc1NC(=O)c1cc(OC)c(OC)c(OC)c1,inactive
6,COc1c(C(C)C)oc2cc3oc(=O)ccc3cc12,"inconclusive: 89.1 µM [inhibitor, single point]"
7,Cc1cccc(C(=O)NNC(=O)C(=O)NC(C)(C)C)c1,"inconclusive: 89.1 µM [inhibitor, single point]"
8,CC(C)(C)C1C/C(=C/c2ccccn2)C(=O)/C(=C/c2ccccn2)C1 (stereo not given),"inconclusive: 63.1 µM [inhibitor, partial curve]"
9,Cc1cc(C(=O)OCC(=O)Nc2cccc(S(=O)(=O)N3CCOCC3)c2)c(C)o1,inactive
10,Cc1ccc2nc(Cl)c(/C=N/NC(=O)c3ccccc3O)cc2c1,inactive
11,CC1c2cccn2CCN1S(=O)(=O)c1ccc(F)cc1 (stereo not given),"inconclusive: 89.1 µM [inhibitor, single point]"
12,O=C(CC1SC2=NCCN2C1=O)Nc1ccccc1 (stereo not given),inactive
13,CCCCNC(=O)c1onc(CSc2ccc(F)cc2)c1C(=O)O,"inconclusive: 89.1 µM [inhibitor, single point]"
14,COc1ccc(-c2ccc(=O)n(CC(=O)NCc3ccco3)n2)cc1,"inconclusive: 50.1 µM [inhibitor, partial curve]"
15,CCOc1ccc(/C=N/NC(=O)C2(O)c3ccccc3-c3ccccc32)cc1,inactive
16,COc1ccc(C(=O)NC(=S)Nc2nnn(C)n2)cc1,active: 50.1 µM
17,COc1ccc(N2CCN(C(=O)Nc3cccc(C(F)(F)F)c3)CC2)cc1,"inconclusive: 50.1 µM [inhibitor, partial curve]"
18,Cc1ccc(N=N/C(=C\O)C(=O)c2ccc(Cl)cc2)cc1,active: 11.2 µM
19,O=C(Nc1nc(-c2ccc(F)cc2)cs1)C1CCN(C(=O)c2ccc(F)cc2)CC1,inactive
20,Oc1ccc(C(c2nnnn2C2CCCCC2)N2CCOCC2)cc1 (stereo not given),"inconclusive: 89.1 µM [inhibitor, single point]"
21,C/C(=N/O)c1ccccn1,active: 10 µM
22,O=C(O)CNC(=O)c1ccc(S(=O)(=O)N2CCOCC2)cc1,"inconclusive: 89.1 µM [inhibitor, single point]"
23,Cc1cc(/C=N/NC(=O)c2cccs2)c(C)n1-c1cnccn1,"inconclusive: 89.1 µM [inhibitor, single point]"
24,CC(C)CNc1cc(N2CCCC2)ccc1[N+](=O)[O-],"inconclusive: 31.6 µM [inhibitor, single point]"
25,COc1ccc(OCC(=O)NC2CCCN(Cc3ccc(Cl)cc3)C2)cc1 (stereo not given),"inconclusive: 79.4 µM [inhibitor, single point]"

row,Compound,Potency
1,CCc1nnc(NC(=O)CN2CCN(Cc3ccccc3C)CC2)s1,inactive
2,CC(OC(=O)CNC(=O)c1ccco1)C(=O)N(C)c1ccccc1 (stereo not given),inactive
3,CCOc1cc(C2c3c(-c4ccccc4O)n[nH]c3C(=O)N2CCc2ccccc2)ccc1O (stereo not given),"inconclusive: 89.1 µM [inhibitor, single point]"
4,Cc1ccc2occ(-c3cc(-c4ccc(Cl)cc4)nc4c3COc3ccccc3-4)c(=O)c2c1,inactive
5,CCCOc1cccc(/C=N/NC(=O)c2csc(C)c2C)c1,"inconclusive: 89.1 µM [inhibitor, single point]"
6,Cc1c(C2(O)CCCCC2)[nH]c2cnccc12,"inconclusive: 89.1 µM [inhibitor, single point]"
7,O=C1CC(c2ccco2)CC(O)=C1C=Nc1cc(Cl)cc(Cl)c1 (stereo not given),"inconclusive: 56.2 µM [inhibitor, partial curve]"
8,COc1ccc(OC)c(CCNC(=O)CCc2cn(C)c3ccccc23)c1,"inconclusive: 50.1 µM [inhibitor, partial curve]"
9,COc1ccc(S(=O)(=O)N2CCC(C(=O)N[C@@H](C)C(=O)NCc3cccc(OC)c3)CC2)cc1,inactive
10,CC(C)(C)c1ccc(C(=O)N/C(=C\c2ccco2)C(=O)O)cc1,inactive
11,Cc1ccccc1NC(=O)CSc1nc(N)c2c3c(sc2n1)CSC(C)(C)C3,"inconclusive: 79.4 µM [inhibitor, single point]"
12,Oc1ccc(Nc2nc(-c3ccccc3)nc3ccccc23)cc1,"inconclusive: 79.4 µM [inhibitor, single point]"
13,O=C(O)c1cccc(N2C(=O)c3cccnc3C2=O)c1,inactive
14,COc1ccccc1-n1cnc2cc(NCc3ccccc3O)ccc21,active: 35.5 µM
15,CCOc1cc(C(=S)N2CCOCC2)ccc1OS(=O)(=O)c1ccccc1[N+](=O)[O-],"inconclusive: 50.1 µM [inhibitor, partial curve]"
16,CC(C)C(NC(=O)c1cccs1)C(=O)NC1CCCCC1 (stereo not given),inactive
17,c1ccc2c3c([nH]c2c1)C(C1CCCCC1)N(Cc1ncc[nH]1)CC3 (stereo not given),"inconclusive: 35.5 µM [inhibitor, partial curve]"
18,CCN1CCN(C(=O)Cn2ncc3c([nH]c4ccccc43)c2=O)CC1,inactive
19,O=C(COc1ccccc1)Nc1ccccc1C(=O)OCc1cc(=O)n2nc(C3CC3)sc2n1,inactive
20,O=C(Nc1ccc(CN2CCOCC2)cc1)c1ccc(-c2ccc(Cl)cc2Cl)o1,"inconclusive: 44.7 µM [inhibitor, partial curve]"
21,CCCCN(C(=O)c1ccc(Br)o1)C1CCS(=O)(=O)C1 (stereo not given),inactive
22,O=C(CNCCc1ccc(Cl)cc1)Nc1ccc(C(=O)N2CCCCC2)cc1,active: 20 µM
23,Cc1nn(C)cc1C(=O)NNC(=S)Nc1ccccc1,inactive
24,CC(O/N=C/c1ccccc1OC(F)F)C(=O)Nc1cccc(S(=O)(=O)N2CCOCC2)c1 (stereo not given),inactive
25,Clc1ccc(Oc2ncnc3oc(-c4ccccc4)cc23)cc1,"inconclusive: 89.1 µM [inhibitor, single point]"
